Laboratory results: the supplement of paper PMC9046079
Structures can show the parent of a compound that is named as a salt. ± gives the standard deviation of the averaged measurements. This is one part of the list.
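Note: ISC-enriched organoid precursors grown as 2.5D pseudo-monolayer on Matrigel, compound given on day 0 and day 3, plate values LOESS-normalized before median fold change, three murine donors.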

These molecules were tested on murine small intestinal organoids (ENR+CD Paneth differentiation) (assay: basal (non-stimulated) secreted lysozyme activity relative to plate median (log10 fold change); higher = more Paneth cell lysozyme secretion). Details: 0.4 µM; 6 d.
For `COc1cc(-n2c(=S)[nH]c3ccccc3c2=O)c(Cl)cc1Cl` [Mdivi-1], the “basal (log10)” value was 0.156 ± 0.25. For `O=c1[nH]c2ccc(Cl)cc2c(N[C@@H]2CN3CCC2CC3)c1-c1nc2ccccc2[nH]1`, the “basal (log10)” value was -0.24 ± 0.086. In the case of `CCCN1CCO[C@@H]2c3cc(O)ccc3OC[C@H]21`, the “basal (log10)” value is reported as 0.144 ± 0.046. In the case of `N[C@@H]1C[C@H]1c1ccccc1` [Tranylcypromine (2-PCPA) HCl], the “basal (log10)” value is reported as -0.029 ± 0.034. `CCOC(=O)c1cncn1[C@H](C)c1ccccc1` [Etomidate] was tested, and the “basal (log10)” value was 0.0366 ± 0.13. `CC[C@@H]1/C=C/C=C/C[C@H](C)[C@H](O)[C@](C)(O)C(=O)[C@H](C)[C@@H](O)[C@H](C)C(=O)[C@H](C)[C@@H](O)[C@H](C)/C=C/C(=O)O[C@H]2[C@@H](C)[C@@H](CC1)O[C@@]1(CC[C@@H](C)[C@@H](C[C@H](C)O)O1)[C@@H]2C` [Oligomycin A] was tested, and the “basal (log10)” value was -0.231 ± 0.073. For `Cc1ccc(-n2nccn2)c(C(=O)N2CCN(c3nc4cc(Cl)ccc4o3)CC[C@H]2C)c1` [Suvorexant (MK-4305)], the “basal (log10)” value was 0.0797 ± 0.088. In the case of `CN1CCCCC1Cn1cc(C(=O)c2cc([N+](=O)[O-])ccc2I)c2ccccc21` (stereo unspecified), the “basal (log10)” value is reported as 0.00402 ± 0.067. In the case of `Cc1sc2c(c1C)C(c1ccc(Cl)cc1)=N[C@@H](CC(=O)Nc1ccc(O)cc1)c1nnc(C)n1-2`, the “basal (log10)” value is reported as -0.266 ± 0.15. `O=C(O[C@H]1C[C@H]2CC[C@@H](C1)[N+]21CCCC1)C(O)(c1ccccc1)c1ccccc1` [Trospium chloride] was tested, and the “basal (log10)” value was 0.12 ± 0.046. In the case of `C=C1C[C@@H]2[C@H](CC[C@]3(C)C(=O)CC[C@@H]23)[C@@]2(C)C=CC(=O)C=C12` [Exemestane], the “basal (log10)” value is reported as 0.0789 ± 0.19. With `C[C@@]12N[C@@H](Cc3ccccc31)c1ccccc12` [(-)-MK 801 Maleate] the “basal (log10)” value was -0.0992 ± 0.12. `O=[N+]([O-])/C=C/c1ccc2c(c1)OCO2` [MNS (3,4-Methylenedioxy-Œ≤-nitrostyrene, MDBN)] was tested, and the “basal (log10)” value was -0.0102 ± 0.063. With `CC(=O)O[C@H]1C[C@@H]2CC[C@@H]3[C@H](CC[C@@]4(C)[C@H]3C[C@H]([N+]3(C)CCCCC3)[C@@H]4OC(C)=O)[C@@]2(C)C[C@@H]1[N+]1(C)CCCCC1` [Pancuronium dibromide] the “basal (log10)” value was 0.0466 ± 0.074. In the case of `CCOc1ccccc1-n1c(C(C)N2CCN(C(=O)COc3ccc(Cl)cc3)CC2)nc2ccccc2c1=O` (stereo unspecified) [Erastin], the “basal (log10)” value is reported as 0.158 ± 0.031. In the case of `Cc1cc2c(C(C)C)c(O)c(O)c(C=O)c2c(O)c1-c1c(C)cc2c(C(C)C)c(O)c(O)c(C=O)c2c1O`, the “basal (log10)” value is reported as -0.068 ± 0.04.
